According to PubChem BioAssay AID485344 (National Center for Advancing Translational Sciences (NCATS), 2010):
Among all 340,000 compounds or so, about 6,900 (2%) were called active. Cut-off read from the data, not from the text of the source: active = inhibition above about 30%; inactive = below that, where a call was filed. This is a selection; strong and weak results do not stand in their true shares. Where no call is shown, the source filed none.

Target: D(2) dopamine receptor (Homo sapiens) (UniProt P14416)
Chain of UniProt P14416 (P14416 whole entry, looked up): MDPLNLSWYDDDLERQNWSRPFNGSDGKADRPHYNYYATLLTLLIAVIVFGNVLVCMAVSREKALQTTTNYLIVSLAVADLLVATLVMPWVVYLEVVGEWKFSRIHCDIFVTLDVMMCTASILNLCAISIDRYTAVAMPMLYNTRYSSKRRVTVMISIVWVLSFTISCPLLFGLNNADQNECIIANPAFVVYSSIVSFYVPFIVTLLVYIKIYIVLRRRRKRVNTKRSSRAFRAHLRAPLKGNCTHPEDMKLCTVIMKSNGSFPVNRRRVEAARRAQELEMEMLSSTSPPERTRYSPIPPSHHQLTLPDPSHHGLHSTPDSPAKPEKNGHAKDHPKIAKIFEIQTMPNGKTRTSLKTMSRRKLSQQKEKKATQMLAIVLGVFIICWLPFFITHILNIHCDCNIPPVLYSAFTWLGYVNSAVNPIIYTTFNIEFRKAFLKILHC
Experiment: HTS Assay for Allosteric Antagonists of the Human D2 Dopamine Receptor: Primary Screen for Antagonists; note: 0% is about no effect
Conditions: HEK293 TREx D2 cells, calcium flux, dopamine EC80; at 10 µM; stronger effect = higher value
Summary of the method: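 Calcium flux kinetic readout in an inducible HEK293 TREx D2 line plated overnight at 30 C. After 180 s compound exposure, an EC80 dopamine challenge follows with another 180 s kinetic read to detect antagonism.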

SMILES | inhibition
CCCCCOc1ccc(/C=C/C(=O)Nc2sc3c(c2C(=O)OCC)CCC3)cc1OC | 5.71%
CCCCOc1cccc(C2c3c(-c4cc(C)ccc4O)n[nH]c3C(=O)N2CCOC)c1 (stereo unspecified) | -14.3%
CNC(=O)c1cnc2sc(N3CCC(C)CC3)nn2c1=O | 2.76%
COc1cccc(Nc2nc(CC(C)=O)ns2)c1 | active: 32.8%
COc1ccc(NC(=O)CNC(=O)Cn2ccc3ccccc3c2=O)cc1OC | 1.73%
CCc1ccc(NC(=O)c2cc(=O)c3ccc(C)c(C)c3o2)cc1 | -8.99%
O=C(Cc1ccc(-c2ccccc2)cc1)NCCS(=O)(=O)N1CCN(c2ccccc2F)CC1 | -20.6%
COC(=O)CN1C(=O)CSc2ccc(S(=O)(=O)Nc3ccc(C)c(Cl)c3)cc21 | 1.32%
COc1cccc(NC(=O)C2CCCN(c3ncnc4onc(C)c34)C2)c1 (stereo unspecified) | 6.29%
CCC(C)OC(=O)/C(C#N)=C/c1ccc(-c2ccc(Br)cc2)o1 (stereo unspecified) | 2.28%
O=C(CCCCCn1c(=O)c2sccc2n(CC(=O)Nc2ccccc2F)c1=O)NCc1ccc2c(c1)OCO2 | -8.44%
Cc1ccc(C2CC(=O)Nc3c2c(C)nn3-c2nc(C)cc(C)n2)c(C)c1 (stereo unspecified) | 3.85%
COc1cc(CN(C(=O)COc2ccccc2)c2ccccn2)cc(OC)c1OC | -14%
CCc1ccc(S(=O)(=O)c2nnn3c2nc(N(CC)Cc2ccccc2)c2cc(Cl)ccc23)cc1 | -13.3%
Cc1cc2n(n1)CCCN2C(=O)Nc1ccccc1C(F)(F)F | 0.374%
CCCCN(C)C(=O)CCC(=O)NNc1nc2ccccc2c2nc(C)nn12 | 12.3%
CCC(Nc1ccc(-c2nc(-c3ccccn3)no2)cc1[N+](=O)[O-])c1ccccc1 (stereo unspecified) | 8.42%
Cc1oc(-c2cccc(Cl)c2)nc1Cn1c(SCc2ccc(F)cc2)nc2cccnc21 | -2.94%
Cc1cccc(N2CCn3c2nc2c3c(=O)n(CCCc3ccccc3)c(=O)n2C)c1 | -8.58%
COc1cc2c(C(=O)N(C)c3cccc(C(F)(F)F)c3)cn(CC(C)C)c(=O)c2cc1OC | 15.3%
Cc1ccc(C(c2sc3nc(-c4ccco4)nn3c2O)N2CCN(c3ccc(F)cc3)CC2)cc1 (stereo unspecified) | 11.8%
COc1ccc(-c2cn3nc(SCC(=O)Nc4cccc(C)c4C)ccc3n2)cc1 | -15.1%
CCOCCn1ccc2c(OCC(=O)Nc3cc(C)cc(C)c3)cccc2c1=O | -11.5%
CC1CCN(C(=O)CN2CC(C)Sc3ccccc32)CC1 (stereo unspecified) | 11.6%

SMILES | inhibition
Cc1ccc(NC(=O)N2CC=C(c3c[nH]c4ccccc34)CC2)cc1Cl | -2.91%
Cc1cccc(C(=O)Nc2ccc(OCc3cc(=O)n4ccc(C)cc4n3)cc2)c1 | -13.1%
Cc1ccc(NS(=O)(=O)c2ccc(-n3cccn3)cc2)c(Br)c1 | 8.52%
COc1ccc(Nc2nc3ccccc3n3c(N)nnc23)cc1 | -5.13%
Cc1c[nH]c2cccc(OCC(CNC(C)(C)C)OC(=O)c3ccccc3)c12 (stereo unspecified) | active: 70%
OCC1(CCc2ccccc2)CCCN(C/C=C/c2ccccc2)C1 (stereo unspecified) | active: 44.8%
Cc1ccccc1C(=O)N1CCC(c2nc(-c3ccc(S(=O)(=O)N4CCCC4)cc3)no2)CC1 | -10.9%
Clc1cccc(Nc2ncnc3c2nc2n3CCCCC2)c1 | 2.52%
Cn1c(=O)oc2cc(S(=O)(=O)CCC(=O)NCc3ccc(Cl)cc3)ccc21 | -5.42%
Cc1ccsc1CN(Cc1ccco1)c1cnc(S(C)(=O)=O)nc1C(=O)Nc1ccc(Cl)cc1 | 15%
C=CCNC(=O)c1ccccc1NC(=O)COc1ccccc1 | active: 58.9%
COc1cc(Nc2nc3c(S(=O)(=O)c4ccccc4)nnn3c3ccc(Cl)cc23)cc(OC)c1 | -5.24%
CCN(C1CCCCC1)S(=O)(=O)c1ccc(S(=O)(=O)N2CCN(CCC#N)CC2)cc1 | active: 37.6%
O=C(c1cncc(Br)c1)N1CCN(S(=O)(=O)c2ccccc2C(F)(F)F)CC1 | active: 40.4%
O=c1c2oc3ccccc3c2n(Cc2ccccc2Cl)c(=O)n1Cc1ccc2c(c1)OCO2 | 3.52%
CCOC(=O)c1cnn(CCOC(=O)Cc2cccs2)c1NC(=O)Cc1cccs1 | active: 33.5%
COc1ccccc1Nc1cc(C(=O)NCCCN(C)C2CCCCC2)c2ccccc2n1 | 16.9%
Cc1ccc2c(c1)N(C(=O)CCC(=O)NCc1ccccc1F)CC(C)O2 (stereo unspecified) | 13.4%
O=C(COc1ccc(Cl)cc1)OCc1cc(=O)n2nc(C3CCCCC3)sc2n1 | 1.68%
CCOC(=O)c1ccc2c(c1)N(Cc1cc(C)ccc1C)C(=O)c1ccccc1S2(=O)=O | -11.7%
COc1cccc(NC(=O)/C=C/c2ccc([N+](=O)[O-])cc2)c1 | active: 44.6%
Cc1cc(C)cc(NC(=O)[C@H]2O[C@@H]3OC(C)(C)O[C@@H]3[C@H]3OC(C)(C)O[C@H]32)c1 | -5.22%
CC(C)CC(=O)NC1CC(=O)N(c2ccc3c(c2)OCCO3)C1 (stereo unspecified) | 19.3%
CN(Cc1ccccc1)c1nc2c(S(=O)(=O)c3cccc(Cl)c3)nnn2c2ccsc12 | 4.23%

SMILES | inhibition
CCCCNC(=O)CSc1nc2cc3c(cc2c(=O)n1CCCC(=O)NCc1ccc(OC)cc1)OCO3 | 0.781%
O=C1CN(C(=O)c2ccc(S(=O)(=O)N3CCCC3)cc2)C(c2ccc(F)cc2)c2cc(Br)ccc2N1 (stereo unspecified) | -4.46%
COC(=O)c1ccccc1NC(=O)NCc1ccc2c(c1)CCN2C(=O)c1ccccc1 | 14.3%
CCC1CN(S(=O)(=O)c2cc(-c3cc(C)no3)ccc2OC)c2cc(Cl)ccc2O1 (stereo unspecified) | -2.31%
O=S(=O)(NCCc1csc2nc(-c3ccc(Cl)cc3)nn12)c1cccs1 | -9.1%
COc1ccc(/C=C/CN2CCCC(C(=O)c3cc(F)ccc3F)C2)cc1 (stereo unspecified) | active: 34.2%
CC(=O)N1CCc2c(sc3c2c(=O)n(-c2ccccc2C)c(=O)n3CC(=O)Nc2ccccc2)C1 | 13.4%
Cc1ccc(C(=O)NNC(=O)c2cc(OCC(F)(F)F)ccc2OCC(F)(F)F)cc1 | active: 32.4%
Cc1ccc(S(=O)(=O)c2nc(-c3cccs3)oc2N2CCC(C)CC2)cc1 | 3%
Cn1c(=O)sc2cc(NS(=O)(=O)c3ccc(C(C)(C)C)cc3)ccc21 | -20.8%
COc1ccc(C(=O)NCc2cn3ccc(C)cc3n2)cc1 | 7.06%
Cc1c(C(=O)Nc2c(F)cccc2F)sc2ncn(Cc3ccccc3F)c(=O)c12 | -2.06%
CCc1ccccc1Nc1sc(C(=O)c2ccccc2)c(N)c1S(=O)(=O)c1ccccc1 | 9.55%
CCCCN(CC)C(=O)CSc1nc2c(sc3ccccc32)c(=O)n1CCc1ccccc1 | -0.954%
CN(C)C(=O)c1ccc(S(=O)(=O)NCc2ccc(Cl)cc2)s1 | -0.561%
CCc1ccccc1NC(=O)Cn1c(=O)n(-c2ccc(C)cc2)c(=O)c2cc(OC)c(OC)cc21 | 5.18%
CCN(CCCNC(=O)Cn1ncc2c([nH]c3ccccc32)c1=O)c1cccc(C)c1 | 3.24%
COC(=O)c1scc(-c2ccc(C)cc2)c1S(=O)(=O)N1CCN(c2cccc(Cl)c2)CC1 | -1.9%
CCCSC1=NC2(CCN(C(=O)NC3CCCCC3)CC2)N=C1c1ccc(C)cc1 | -2.34%
Cc1ccc(C)c(OCc2nc3ccccc3n2C)c1 | 0.0064%
Cc1ccccc1NC(=O)CSc1nc2c(oc3ccccc32)c(=O)n1Cc1ccco1 | 13.5%
Cc1nc2nc(NCc3ccccc3Cl)[nH]n2c(=O)c1Cc1ccccc1 | 1.95%
COc1ccc([N+](=O)[O-])cc1NC(=O)C(C)OC(=O)CSC(C)C(=O)Nc1cc(C)on1 (stereo unspecified) | active: 35.9%
O=C(NCc1ccccc1)C1CCN(c2ncnc3c2nc2n3CCCCC2)CC1 | -10%

SMILES | inhibition
Cc1ccc(CCNC(=O)C2CC(=O)N(CCc3ccc(C)cc3)C2)cc1 (stereo unspecified) | -12.4%
CCOC(=O)c1cccc(NC(=O)C2COc3ccc(OC)cc3C2)c1 (stereo unspecified) | 5.89%
O=C(c1ccco1)N1CCN(CCOc2ccccc2)CC1 | active: 61.7%
O=C(NCc1ccc(Cl)cc1)c1ccc2c(c1)nnn2C1CCCC1 | -7.39%
COc1ccc(C)cc1NC(=O)CSc1nc(=O)n(Cc2ccco2)c2c1CCC2 | 6.59%
Cc1ccc(-n2cc(-c3ccccc3)c3c(N4CCC(C)CC4)ncnc32)cc1Cl | 2.05%
Cc1cccc(N(C)S(=O)(=O)c2nnc(NC(=O)C(C)Oc3ccccc3)s2)c1 (stereo unspecified) | -15.5%
CN1C(=O)c2ccccc2Sc2ccc(NC(=O)Cc3ccc(Cl)cc3)cc21 | 1.53%
COc1ccc(OC)c(CCNC(=O)c2ccc3c(c2)N(Cc2ccccc2)CCS3)c1 | 3.17%
CCOC(=O)c1c(NC(=O)Cn2c(=O)oc3ccccc32)oc(C)c1C(C)=O | active: 30.5%
COC(=O)c1sccc1S(=O)(=O)N1CCN(c2cccc(C)c2)C(C)C1 (stereo unspecified) | 2.77%
COc1cccc(-c2cc3c(-n4cccc4)ncnc3o2)c1 | active: 37.4%
CN1CCN(C2=CC3=CC(=C(C#N)C#N)CCC3CC2)CC1 (stereo unspecified) | active: 48.7%
CCc1ccc(NC(=O)C2CCCN(S(=O)(=O)c3ccc4[nH]c(=O)ccc4c3)C2)cc1 (stereo unspecified) | -6.97%
CCOC(=O)C1CCN(C(=O)Cn2nc(C)n3c(cc4c(OC)cccc43)c2=O)CC1 | 10.4%
CCC1CN(C(=O)NCc2ccc(F)cc2)c2cc(C)ccc2O1 (stereo unspecified) | -14.1%
O=C(CSc1ccnc(=O)[nH]1)NCc1ccc(F)cc1 | 16%
COc1cccc(C(c2sc3nc(-c4ccco4)nn3c2O)N2CCC(C)CC2)c1 (stereo unspecified) | -28.4%
CC(=O)Nc1ccc(S(=O)(=O)NCCc2csc3nc(-c4ccc(Cl)cc4)nn23)cc1 | -7.79%
CCCN(Cc1nnc(-c2cccs2)o1)C(=O)CN1C(=O)NC2(CCCCC2)C1=O | active: 31.4%
CC(C)(C)OC(=O)N1CCC(c2c(C(=O)N3CCN(c4cccc(Cl)c4)CC3)cnn2-c2cccc(Cl)c2)CC1 | 4.38%
COc1ccc(S(=O)(=O)Nc2cccc(-c3ccc(N4CCCCCC4)nn3)c2)cc1OC | -6.5%
Cc1cccc(OCC(=O)Nc2c(C(=O)Nc3ccc(F)cc3)oc3ccccc23)c1 | -7.82%
Cc1cccc(C(=O)NCCc2nc3ccccc3n2CCC(C)C)c1 | 2.48%
